In PMC12040169 (PLOS Biology, 2025):
The other results are listed elsewhere or left out.

Tested on: T1, C. trachomatis L2/434/Bu expressing GFP (CTL2-GFP)
T1 construct: L2/434/Bu GFP intracellular growth in HeLa cells
Design: species or system HeLa; C. trachomatis total inclusion area by high-content imaging, normalised to DMSO
Details: total inclusion area; 28.5 h, 10 µM; inhibitor
In short: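 High-content imaging followed the bulk GFP/resorufin measurement: fixed, Hoechst-stained cells were scored for GFP inclusions and host nuclei per well. Total inclusion area and count served as growth proxies, nuclei number as the viability proxy. MIC calculation matched the bulk assay.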

| SMILES | % of control remaining |
| --- | --- |
| CCOC(=O)c1cn(CC2CC2)c2cc(F)c(F)cc2c1=O [CBK304195] | 50.8899 |
| O=C(Nc1cccc(-c2nnn[nH]2)c1)Nc1ccc(Cl)c(Cl)c1 [CBK155454] | 101.174 |
| CC(C)CC(CO)Nc1ncnc2ccc(S(C)(=O)=O)cc12 (centres unmarked) [CBK304203] | 67.6459 |
| CCc1nc2ccc(C(=O)N(C)Cc3ccco3)cn2c1N(C)Cc1cccs1 [CBK145552] | 128.717 |
| Cc1cc(C(=O)Nc2ccc3ncccc3c2)ccc1Cl [CBK159804] | 97.8243 |
| O=C(c1c[nH]c(C(=O)N2CCN(c3ncccn3)CC2)c1)c1ccc(Cl)cc1Cl [CBK107418] | 86.6987 |
| COc1ccc(C2(CNC(=O)C(O)COc3ccccc3)CCCC2)cc1OC (centres unmarked) [CBK014053] | 61.5199 |
| COc1ccc(S(=O)(=O)N2Cc3ccccc3CC2C(=O)Nc2sc3c(c2C#N)CCCC3)cc1 (centres unmarked) [CBK266363] | 89.016 |
| CCCn1c(SCC(=O)N2CCOCC2)nc2ccc(Br)cc2c1=O [CBK305929] | 92.7247 |
| CC(=O)c1cccc(NC(=O)CN2CCCC2c2cccs2)c1 (centres unmarked) [CBK305143] | 48.3783 |
| Cc1cn(S(=O)(=O)c2ccc(Br)cc2)cn1 [CBK026488] | 73.8571 |
| Nc1cc(O)nc(SCCN2CCN(c3ccc(C(F)(F)F)cc3[N+](=O)[O-])CC2)n1 [CBK265225] | 101.354 |
| COc1ccc2c(c1)CCN=C2C[C@H]1CN(C(=O)C2CC2)CC[C@H]1CC(=O)O [CBK289154] | 96.6233 |
| Cc1ccc(-c2nc(C3CCN(C(=O)NC(C)C)CC3)n3ccccc23)cc1 [CBK046861] | 99.8199 |
| O=C(Nc1cccc2ccccc12)/C(=C\c1ccco1)NC(=O)c1ccc(Br)cc1 [CBK264587] | 100.925 |
| C[C@@H]1c2c(C(=O)OC(C)(C)C)ncn2-c2ccc(F)cc2N1CC(=O)N1CCCC1 [CBK016704] | 125.131 |
| c1ccc2oc(-c3cncc(NCCc4c[nH]c5ccccc45)n3)cc2c1 [CBK066068] | 103.18 |
| CCN1CCC[C@@H]1CNC(=O)c1cc(Cl)nc(OC)c1 [CBK174692] | 36.4925 |
| O=C1c2ccccc2C(=O)N1c1ccc2nc(SCc3nc4ccccc4[nH]3)sc2c1 [CBK263368] | 81.1482 |
| CC(C)C(=O)N1C[C@H]2CCc3nnc(-c4ccccc4)n3[C@H]2C1 [CBK283438] | 99.4645 |
| CN1CCOc2cc(S(=O)(=O)Nc3nnn[nH]3)ccc21 [CBK062389] | 81.8347 |
| CCS(=O)(=O)CCNC(=O)c1cnc(N2CCCCC2)nc1C [CBK307715] | 67.8576 |
| Cc1[nH]c2c(C)cccc2c1CC(=O)N(C)CCN(C)C [CBK282724] | 97.5473 |
| O=C(O)c1ccc(Cl)c(S(=O)(=O)N2CCCC2C(=O)O)c1 (centres unmarked) [CBK265733] | 113.558 |
| Cn1c(=O)n(CC(=O)Nc2ccc(F)cc2)c2cccnc21 [CBK283919] | 57.381 |

| SMILES | % of control remaining |
| --- | --- |
| Cc1ccc(Cl)c(OC(C)C(=O)N2CCCC(C(N)=O)C2)c1 (centres unmarked) [CBK304936] | 34.0789 |
| CN1CCC(N2CCN(C(=O)NCC3COc4ccccc4O3)CC2)CC1 (centres unmarked) [CBK155881] | 81.0297 |
| O=C(NCCN1CCOCC1)c1cc(-c2cccc(Br)c2)nc2ccccc12 [CBK263625] | 105.429 |
| NC(=O)C1(N2CCCCC2)CCN(C(=O)CCCC(=O)O)CC1 [CBK286575] | 65.2049 |
| O=[N+]([O-])c1ccc(Cl)cc1N/N=C1\CN2CCC1CC2 [CBK217272] | 90.1692 |
| COc1ccc(-c2nc3ccccn3c2CN2CCC(C(=O)O)CC2)cc1 [CBK287052] | 105.033 |
| O=C(CSc1ncn(-c2ccccc2)n1)Nc1ccc2[nH]c(=O)[nH]c2c1 [CBK268212] | 100.296 |
| CCNC(=S)N[C@@H]1CC[C@@]2(c3ccc([N+](=O)[O-])cc3)CCN(CCc3ccccc3)[C@H]2C1 [CBK004677] | 90.3257 |
| Cc1ccc(-c2ccccc2)n1-c1ccc(O)c(C(=O)O)c1 [CBK116375] | 111.838 |
| Nc1nonc1-c1nc2ccccc2n1CC(=O)NCc1ccccc1 [CBK264711] | 116.564 |
| COc1ccccc1OCCCN1C(=O)C2(CC(=O)N(C)C2=O)c2cc(F)ccc21 (centres unmarked) [CBK075430] | 87.3023 |
| CCc1nn2c(C3CCNCC3)ccnc2c1-c1cccs1 [CBK284226] | 52.7547 |
| O=S(=O)(Nc1ccccc1O)c1ccc(OC(F)(F)F)cc1 [CBK043512] | 86.9162 |
| Cc1nc2sc3c(c2c2nc(CCC(=O)O)nn12)CC(C)(C)OC3 [CBK269168] | 117.055 |
| COc1ncc(-c2nccnc2NCc2ccc(F)cc2)c(OC)n1 [CBK037668] | 157.426 |
| CC(C)(C)C(=O)Nc1ccc(F)c(C(=O)N2CCc3[nH]ncc3C2)c1 [CBK305303] | 73.5138 |
| CCC(=O)N1CCCCC1c1nn(C)cc1-c1onc(C)c1C (centres unmarked) [CBK283411] | 114.684 |
| Cc1c(C(=O)N(C)Cc2nc(C(F)(F)F)cs2)nnn1C1CCNCC1 [CBK304315C] | 38.7514 |
| Cc1c(CNC2(c3ccccc3F)CCCC2)c(=O)n(C)c(=O)n1C [CBK282986] | 119.768 |
| CS(=O)(=O)c1ccc(CN2C[C@@H]3OCC(=O)N(Cc4ccc(F)cc4)[C@@H]3C2)cc1 [CBK289690] | 119.181 |
| Cc1cc(C[C@@H]2COC[C@H]2NCc2cccc(Cl)c2)on1 [CBK284885] | 121.97 |
| CC(C)NC(=O)N[C@H]1CCN2C(=O)N(c3cccc4nsnc34)C(=O)[C@@H]2C1 [CBK289539] | 82.8343 |
| CN1C[C@@H](C(=O)NC(C)(C)C)[C@@]2(CCc3ccccc3C(=O)N2)C1 [CBK284796] | 123.374 |
| CCn1ncc(CN2CCCCCC2c2cc(C)no2)c1C (centres unmarked) [CBK283008] | 113.483 |
| CN1C(=O)[C@@H](OC(=O)c2cccnc2)C[C@H]1c1ccc(F)cc1 [CBK283649] | 101.004 |
